# Assay results as given in PubChem BioAssay (NCATS).
# Inconclusive results, whose numbers are uncertain, are shown with a selection of clear calls. Potencies of inconclusive entries are left out as doubtful fits. Activity calls are given as the source filed them. Unless noted, calls come from the whole dose curve; as a rule, active = well fitted curve in the direction sought with a large enough effect in the repeat runs; inconclusive = weak or mixed curves; inactive = no such curve, though single readings can be large; an effect the other way counts as inactive or inconclusive.
# Columns and labels:
# [1] = biological target: Cytochrome P450 2D6 (Homo sapiens) (UniProt P10635); assay: Cytochrome P450 family 2 subfamily D member 6 (CYP2D6) small molecule antagonists: luciferase biochemical (cell-free) qHTS assay (AID 1645840); note: nearly all actives have a fitted effect of over 55% in size
# Method in brief: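 P450-Glo luminescent screen: recombinant CYP2D6 enzyme–proluciferin substrate mix preincubated with compound 10 min at room temperature, then NADPH regeneration added for 1 h at room temperature. Detection reagent added for 20 min; luciferin light read as relative luminescence units.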
# [2] = biological target: Cytochrome P450 2C9 (Homo sapiens) (UniProt P11712); assay: Cytochrome P450 family 2 subfamily C member 9 (CYP2C9) small molecule antagonists: luciferase biochemical (cell-free) qHTS assay (AID 1645842); note: nearly all actives have a fitted effect of over 55% in size
# Method in brief: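 Luminescence, after 20 min with luciferin detection reagent, reflected CYP2C9 turnover during a 1 h NADPH-driven reaction at 37C. Enzyme-substrate mix contained 0.4% bovine serum albumin and was preincubated with compound 10 min at room temperature.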
# [3] = biological target: Cytochrome P450 3A4 (Homo sapiens) (UniProt P08684); assay: Cytochrome P450 family 3 subfamily A member 4 (CYP3A4) small molecule antagonists: luciferase qHTS assay (AID 1645841); note: nearly all actives have a fitted effect of over 45% in size
# Method in brief: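 P450-Glo CYP3A4 enzyme with proluciferin substrate was preincubated with DMSO-dissolved compounds for 10 min at room temperature. NADPH regeneration solution started a 1 h reaction. Detection reagent stopped it, and luminescence was read after 20 min.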
# [4] = Cytotoxicity counterscreen for inhibitors of SARS-CoV-2 cell entry (AID 1645845; calls by dose curve; note: nearly all actives have a fitted effect of over 50% in size); conditions: activity change, negative = cytotoxicity: at 57.1 µM (top of the series) unless noted
# Method in brief: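 Expi293F/hACE2 cells seeded overnight; cpd pin-transferred in DMSO, 1 h preincubation, + media, 48 h 37 C 5% CO2; ATPLite 1step luminescence; normalized to cells and no cells.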
# Potency is the fitted concentration of half-maximal effect; tags give direction and shape of the fitted curve.
# UniProt P10635, sequence (P10635 whole entry, looked up): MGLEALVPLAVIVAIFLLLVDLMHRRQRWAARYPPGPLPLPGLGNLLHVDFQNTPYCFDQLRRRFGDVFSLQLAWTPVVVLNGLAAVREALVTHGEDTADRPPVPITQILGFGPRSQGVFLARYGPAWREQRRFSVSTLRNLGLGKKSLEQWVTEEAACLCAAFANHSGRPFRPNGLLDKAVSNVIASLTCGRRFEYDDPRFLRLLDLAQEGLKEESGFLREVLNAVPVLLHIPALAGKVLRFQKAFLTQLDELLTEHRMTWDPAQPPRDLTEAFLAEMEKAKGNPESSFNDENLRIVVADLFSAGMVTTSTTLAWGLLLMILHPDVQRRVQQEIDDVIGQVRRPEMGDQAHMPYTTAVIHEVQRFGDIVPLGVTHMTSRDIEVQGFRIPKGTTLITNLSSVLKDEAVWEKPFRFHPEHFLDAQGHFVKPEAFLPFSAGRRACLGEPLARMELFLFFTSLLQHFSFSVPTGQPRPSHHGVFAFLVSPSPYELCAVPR
# UniProt P11712, sequence (P11712 whole entry, looked up): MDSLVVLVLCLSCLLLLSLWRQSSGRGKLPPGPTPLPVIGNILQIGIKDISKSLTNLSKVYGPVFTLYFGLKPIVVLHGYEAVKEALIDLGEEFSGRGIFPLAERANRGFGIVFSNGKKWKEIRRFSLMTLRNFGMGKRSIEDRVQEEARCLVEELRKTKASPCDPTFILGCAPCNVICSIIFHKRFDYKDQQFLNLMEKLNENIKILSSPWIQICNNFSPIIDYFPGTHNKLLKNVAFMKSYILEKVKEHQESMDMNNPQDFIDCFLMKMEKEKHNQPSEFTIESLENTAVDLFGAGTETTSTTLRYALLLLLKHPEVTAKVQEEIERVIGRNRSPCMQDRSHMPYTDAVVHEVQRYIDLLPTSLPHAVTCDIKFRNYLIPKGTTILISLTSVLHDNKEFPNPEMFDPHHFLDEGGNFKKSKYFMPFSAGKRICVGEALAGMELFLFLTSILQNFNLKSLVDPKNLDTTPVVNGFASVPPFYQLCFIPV
# UniProt P08684, sequence (P08684 whole entry, looked up): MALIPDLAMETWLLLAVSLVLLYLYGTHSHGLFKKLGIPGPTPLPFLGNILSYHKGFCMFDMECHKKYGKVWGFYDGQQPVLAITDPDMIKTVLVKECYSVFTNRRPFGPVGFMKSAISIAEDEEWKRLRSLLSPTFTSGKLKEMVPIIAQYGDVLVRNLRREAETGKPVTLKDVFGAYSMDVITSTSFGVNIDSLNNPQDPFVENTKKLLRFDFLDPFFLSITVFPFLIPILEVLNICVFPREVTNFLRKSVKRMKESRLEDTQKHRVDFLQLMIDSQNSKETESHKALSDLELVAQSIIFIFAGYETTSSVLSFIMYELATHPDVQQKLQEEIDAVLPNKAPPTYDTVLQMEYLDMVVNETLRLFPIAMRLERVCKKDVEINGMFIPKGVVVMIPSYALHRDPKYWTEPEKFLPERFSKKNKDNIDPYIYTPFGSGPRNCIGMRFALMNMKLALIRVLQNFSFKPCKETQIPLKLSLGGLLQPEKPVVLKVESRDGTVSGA
smiles,measurement,setting,value
c1ccc2nc(N3CCNCC3)ccc2c1,Potency,[1],inactive
same,Potency,[2],inactive
CC(C)(C)C(O)C(Oc1ccc(Cl)cc1)n1cncn1 (stereo not given),Potency,[1],inconclusive [inhibitor]
CCOc1ccc(Oc2ccc(OCc3cc(F)ccc3F)cc2)c(N)c1,Potency,[1],"inconclusive [inhibitor, partial curve]"
CCC(CC)(CNC(=O)CCCO)c1cccc(OC)c1,Potency,[1],"inconclusive [inhibitor, partial curve, poor fit]"
same,Potency,[2],inactive
CCOC(=O)C(c1c(O)c2ccccc2oc1=O)c1c(O)c2ccccc2oc1=O,Potency,[1],inactive
CCc1cc(OC)c(C[C@H](C)N)cc1OC,Potency,[1],"inconclusive [inhibitor, partial curve, poor fit]"
C[C@@H]1CN(C2CCC(C#N)(c3ccc(F)cc3)CC2)CC[C@]1(C(=O)O)c1ccccc1 (stereo not given in full),Potency,[1],active: 0.049 µM
same,Potency,[2],inactive
CN1CCN(C(=O)O[C@H]2c3nccnc3C(=O)N2c2ccc(Cl)cn2)CC1,Potency,[1],"inconclusive [inhibitor, partial curve, poor fit]"
CNc1ccc2oc(C[C@H]3O[C@@]4(CC[C@H]3C)O[C@H](C(C)C(=O)c3ccc[nH]3)[C@H](C)C[C@H]4C)nc2c1C(=O)O (stereo not given in full),Potency,[1],inactive
same,Potency,[2],"inconclusive [inhibitor, single point]"
C[C@]12CC[C@H](O)CC1=CC[C@@H]1[C@@H]2CC[C@]2(C)C(=O)CC[C@@H]12,Potency,[1],"inconclusive [inhibitor, partial curve, poor fit]"
CC(=O)NCCCOc1ccc(C(=O)N2CCC(N3C(=O)CCc4ccccc43)CC2)cc1,Potency,[1],inactive
same,Potency,[3],"inconclusive [falling, partial curve]"
same,Potency,[2],inactive
CCCCCCCCCC(=O)O[C@H]1CC[C@H]2[C@@H]3CCC4=CC(=O)CC[C@@H]4[C@H]3CC[C@]12C,Potency,[1],"inconclusive [inhibitor, single point]"
Cc1ncc(CNC(=O)N(CCCl)N=O)c(N)n1,Potency,[1],"inconclusive [inhibitor, partial curve, poor fit]"
same,Potency,[3],"inconclusive [falling, full curve]"
same,Potency,[4],inactive
C#C[C@]1(O)CC[C@H]2[C@@H]3CCC4=CC(=O)CCC4=C3C=C[C@@]21CC,Potency,[1],active: 0.977 µM
same,Potency,[2],inactive
Cc1ncc2n1-c1ccc(Cl)cc1C(c1ccccc1F)=NC2,Potency,[1],"inconclusive [inhibitor, partial curve, poor fit]"
same,Potency,[2],"inconclusive [inhibitor, single point]"
COc1cccc([C@@]2(O)CCCC[C@@H]2CN(C)C)c1,Potency,[1],inactive
same,Potency,[3],inactive
NC(=O)c1cc([N+](=O)[O-])cc([N+](=O)[O-])c1,Potency,[1],inconclusive [inhibitor]
same,Potency,[3],active: 9.65 µM
same,Potency,[2],inactive
C[C@H](NC(=O)Cc1cc(F)cc(F)c1)C(=O)N[C@@H]1N=C(c2ccccc2)c2ccccc2N(C)C1=O,Potency,[1],"inconclusive [inhibitor, single point]"
same,Potency,[2],inactive
N#CC(C#N)=Cc1ccc(O)c(O)c1,Potency,[1],"inconclusive [inhibitor, single point]"
same,Potency,[2],inactive
O=C(O)CCCCCCNC1c2ccccc2CCc2ccccc21,Potency,[1],"inconclusive [inhibitor, partial curve, poor fit]"
CC(N)Cc1c[nH]c2ccccc12 (stereo not given),Potency,[1],active: 23.9 µM
Nc1nc(N)nc(NC2CC2)n1,Potency,[1],inactive
same,Potency,[3],inactive
CN1C(=O)C(Cc2ccc3ccccc3c2)N=C(c2ccc(O)cc2)c2cc(Cl)ccc21 (stereo not given),Potency,[1],active: 10.7 µM
same,Potency,[2],"inconclusive [inhibitor, single point]"
CCC(=O)O[C@@H]1C=C2CCC3C(CCC4(C)C3CC[C@@H]4OC(=O)CC)C2CC1 (stereo not given in full),Potency,[1],"inconclusive [inhibitor, single point]"
CC1=C(O)C(=O)C=C2C1=CC=C1[C@@]2(C)CC[C@@]2(C)[C@@H]3C[C@](C)(C(=O)O)CC[C@]3(C)CC[C@]12C,Potency,[1],"inconclusive [inhibitor, single point]"
same,Potency,[4],"inconclusive [cytotoxic, single point]"
N#Cc1ccccc1-c1cc(-c2ccccn2)cn(-c2ccccc2)c1=O,Potency,[1],inactive
same,Potency,[2],active: 13.5 µM
